From PubChem BioAssay AID588855 (National Center for Advancing Translational Sciences (NCATS), 2011)
The whole screen tested about 410,000 compounds, of which about 5,000 (1.2%) were called active. The inconclusive results got no clear call from the source; some entries with a clear call stand among them for comparison. The call rests on the fitted dose curve; in most records, active means well fitted inhibition curve with a large enough effect; inconclusive means small, poorly fitted or top-dose-only effect; inactive means no such curve, though single readings can be large or run the other way. Where the call is inconclusive, the potency comes from a doubtful curve fit.

assay: qHTS for Inhibitors of TGF-b; details: HepG2 CAGA-GFP TGF-b/SMAD3 reporter, GFP fluorescence, 18 h, TGF-beta stimulated, 500 pg/mL final; series mostly up to 46.1 µM; activity, negative = inhibition: at the top concentration; further: nearly all actives have a fitted effect of over 65% in size
How it was run: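 Per well, imaged GFP fluorescence of HEPG2 CAGA-GFP cells gives the signal; cells get compound, then TGF-beta (500 pg/mL final), 18 h at 37 degrees C; %Activity versus -TGF-beta and +DMSO controls.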
On the % scale 0 is the no-effect control and ±100 the full control effect; potency means the concentration at half of the fitted maximal effect; tags describe the fitted curve by direction and shape.

| Structure (SMILES) | Potency | activity, negative = inhibition |
| --- | --- | --- |
| CCNC(=S)NNC(=O)CSc1nc2ccccc2n1C | inconclusive: 3.55 µM [inhibitor, full curve] |  |
| Cn1c(C(c2cc3ccccc3n2C)c2cc3ccccc3n2C)cc2ccccc21 | inconclusive: 28.2 µM [inhibitor, single point] |  |
| O=C1/C(=C/c2cccc([N+](=O)[O-])c2)CSc2ccc(Cl)cc21 |  | inactive: 12% |
| COC(=O)c1c(NC(=O)/C=C/C(=O)O)sc(Cc2ccccc2)c1C | inconclusive: 20 µM [inhibitor, partial curve, poor fit] |  |
| CC(C)(C)c1cc(NC(=O)C2(C)CCN2C(=O)C2(c3ccccc3)CC2)no1 (stereo unspecified) |  | inactive: 3.18% |
| Cc1cccc(Nc2ncc(NC(=O)c3cccc(F)c3)c(Nc3cccc(C)c3)n2)c1 | inconclusive: 35.5 µM [inhibitor, single point] |  |
| CC(C)Sc1nc(N2CCOCC2)c2c(c1C#N)CC(C)(C)SC2 | inconclusive: 35.5 µM [inhibitor, single point] |  |
| COc1ccc(NC(C)C(=O)Nc2cc(C(F)(F)F)ccc2N2CCOCC2)c(OC)c1 (stereo unspecified) | inconclusive: 35.5 µM [inhibitor, partial curve, poor fit] |  |
| Cc1cccc(Nc2nc(N)nc(CN3CCN(c4ccc(F)cc4)CC3)n2)c1 | inconclusive: 1.78 µM [inhibitor, partial curve, poor fit] |  |
| Cn1ccc2c(-c3ccc(C(N)=O)cc3)cc3c(c21)C1CCC3C1 (stereo unspecified) | inconclusive: 15.8 µM [inhibitor, single point] |  |
| Cc1noc(C)c1C(=O)OCC(=O)N(C)C1CCS(=O)(=O)C1 (stereo unspecified) | inconclusive: 1 µM [inhibitor, full curve] |  |
| COc1ccc(N/N=C(/C)c2cnnc(-c3ccccc3)n2)cc1 |  | inactive: 2.92% |
| c1ccc2c(C3OCC4(CCCCC4)CO3)cccc2c1 |  | inactive: 0.219% |
| COc1cc(/C=N/NC(=O)Nc2ccccc2)ccc1OCCOc1ccccc1C | inconclusive: 20 µM [inhibitor, single point] |  |
| CN(c1nc2c(c(=O)n(C)c(=O)n2C)n1CC(=O)c1ccccc1)C1CCCCC1 |  | inactive: -2.23% |
| O=C(Nc1cccnc1)c1ccc(CSc2ccccc2)cc1 | inconclusive: 2.82 µM [inhibitor, full curve, poor fit] |  |
| CC(=O)N/N=C(\C)C1COc2ccccc2O1 (stereo unspecified) |  | inactive: 11.2% |
| S=C(NCCC(c1ccccc1)c1ccccc1)Nc1ccccc1Cl | inconclusive: 20 µM [inhibitor, single point] |  |
| COC(=O)c1ccccc1NC(=O)C1CCCN(c2nnc(-n3cccc3)s2)C1 (stereo unspecified) |  | inactive: -23.1% |
| Cc1ccccc1C(=O)Nc1nnc(-c2cccnc2)o1 |  | inactive: -19.5% |
| Cc1cc(Cl)c2cc3ccccc3cc2n1 | inconclusive: 0.112 µM [inhibitor, full curve, poor fit] |  |
| CCN1CCN(S(=O)(=O)c2ccc(Cl)c(C(=O)N(CCc3ccccc3)Cc3ccccc3)c2)CC1 | inconclusive: 17.8 µM [inhibitor, partial curve, poor fit] |  |
| CC(=O)Nc1cccc(C(=O)OC(C)C(=O)NCc2ccc3c(c2)OCO3)c1 (stereo unspecified) |  | inactive: 0% |
| NC1=NC[C@H](Cc2ccccc2)N1CCCCC1CCCCC1 | inconclusive: 35.5 µM [inhibitor, single point] |  |

| Structure (SMILES) | Potency | activity, negative = inhibition |
| --- | --- | --- |
| O=C(COC(=O)[C@@H]1CCCN1S(=O)(=O)c1ccc(Cl)cc1)NC1CC1 | inconclusive: 1 µM [inhibitor, full curve, poor fit] |  |
| COc1cc(Nc2nc3ccccc3n3nnnc23)cc(OC)c1OC |  | inactive: -4.61% |
| O=C(Nc1cccnc1)c1cccc(S(=O)(=O)Nc2cccc(Cl)c2)c1 | inconclusive: 35.5 µM [inhibitor, single point] |  |
| Cc1cc2c(cc1S(=O)(=O)N(C)CC(=O)Nc1ccc(C#N)cc1)OCC(=O)N2 | inconclusive: 0.631 µM [inhibitor, partial curve, poor fit] |  |
| CC(=O)Nc1ccc(C(=O)N2CCc3cc4c(cc3C2C)OCCCO4)cc1 (stereo unspecified) |  | inactive: -10.7% |
| CN(C(=O)COC(=O)/C=C/c1ccc(C(F)(F)F)cc1)c1c(N)n(Cc2ccccc2)c(=O)[nH]c1=O | inconclusive: 6.31 µM [inhibitor, single point] |  |
| COc1ccc2c(c1)CCCC21NC(=O)N(CC(=O)N2CC(C)OC(C)C2)C1=O (stereo unspecified) |  | inactive: -2.36% |
| O=C(OCC(=O)N1CCN(c2ccccc2)CC1)C1CCCN1S(=O)(=O)c1ccc(Cl)cc1 (stereo unspecified) |  | inactive: 0.338% |
| CN(CCC1CCOCC1)C(=O)CC1C(=O)NCCN1Cc1c(F)cccc1Cl (stereo unspecified) |  | inactive: 0.967% |
| Cc1cc(C)c(NC(=O)Nc2ccccc2C)c(Cl)c1 |  | inactive: -6.98% |
| CN(C)/C=C1\C=C2C(=O)c3ccccc3N2C1=O | inconclusive: 5.62 µM [inhibitor, full curve, poor fit] |  |
| CCCCCc1ccc(OCCCC[n+]2ccccc2)c(CCCCC)c1 | inconclusive: 25.1 µM [inhibitor, single point] |  |
| COc1cc(OC)c(C(=O)OCC(=O)N2CCOCC2)cc1OC |  | inactive: 6.38% |
| COCCN(C(=O)C1CC(=O)N(Cc2ccccc2)C1)c1nc(-c2ccc([N+](=O)[O-])cc2)cs1 (stereo unspecified) |  | inactive: -12.9% |
| Cc1sc2nc(CSc3ccccc3)nc(N3CCN(C)CC3)c2c1C |  | inactive: -7.74% |
| CS(=O)(=O)N(CC(=O)Nc1ccccc1C(=O)NCc1ccco1)c1ccc2c(c1)OCCO2 | inconclusive: 35.5 µM [inhibitor, single point] |  |
| CC(CNC(=O)CN1C(=O)COc2ccc(S(=O)(=O)N3CCCCCC3)cc21)c1ccccc1 (stereo unspecified) | inconclusive: 17.8 µM [inhibitor, single point] |  |
| O=C(CC(O)c1ccncc1)c1ccccc1O (stereo unspecified) | inconclusive: 35.5 µM [inhibitor, single point] |  |
| CC(=O)OCc1cc(-c2nn(C)c(=O)c3ccccc23)ccc1C |  | inactive: -1.01% |
| COc1cc(C(Nc2ccccn2)c2ccc3ccc(C)nc3c2O)cc(OC)c1O (stereo unspecified) | inconclusive: 7.94 µM [inhibitor, partial curve, poor fit] |  |
| CC(C)CNC(=O)c1ccccc1NC(=O)c1ccc(CSc2ccccc2)cc1 |  | inactive: 9.82% |
| O=C(/C=C/c1cccc(O)c1)c1cccnc1 | inconclusive: 25.1 µM [inhibitor, single point] |  |
| S=c1nn[nH]n1C12CC3CC(CC(C3)C1)C2 | inconclusive: 1.58 µM [inhibitor, partial curve, poor fit] |  |
| NNc1ncnc2scc(-c3ccc(Cl)cc3)c12 |  | inactive: -39.2% |

| Structure (SMILES) | Potency | activity, negative = inhibition |
| --- | --- | --- |
| Cc1ccc(Cl)cc1NC(=O)C1CCCN(S(=O)(=O)c2cccc3cccnc23)C1 (stereo unspecified) |  | inactive: -22.7% |
| COc1ccccc1CNC(=O)CSc1nc2nc(C)c(Cc3ccccc3Cl)c(C)n2n1 |  | inactive: -18.6% |
| COc1ccc(C(=O)NCCc2ccccc2)cc1[N+](=O)[O-] | inconclusive: 35.5 µM [inhibitor, single point] |  |
| Cc1[nH]c2ccccc2c1C(c1ccccc1)c1ccc(Cl)s1 (stereo unspecified) | inconclusive: 11.2 µM [inhibitor, partial curve, poor fit] |  |
| CCOc1ccccc1NC(=O)CCn1cnnn1 |  | inactive: 7.48% |
| COc1ccccc1NC(=O)CSc1nc2nccnc2c(=O)n1CCc1c[nH]c2ccccc12 |  | inactive: -11.8% |
| Cc1cccn2c(Nc3ccccc3)c(-c3cccs3)nc12 | inconclusive: 35.5 µM [inhibitor, single point] |  |
| COc1ccc(CN(C)C(=O)COC(=O)c2ccc(-c3ccccc3)cc2)c(OC)c1OC |  | inactive: -2.6% |
| COC(=O)[C@]1(Cc2ccccc2)N[C@H](CN(C)C(=O)Nc2ccc(OC)cc2)[C@@H]2C(=O)N(Cc3ccccc3)C(=O)[C@@H]21 | inconclusive: 35.5 µM [inhibitor, single point] |  |
| CCCCC(=O)Nc1ncc(Br)s1 | inconclusive: 11.2 µM [inhibitor, partial curve, poor fit] |  |
| N#Cc1ccc(-c2nc3ccc(Cl)cn3c2Cc2ccccc2C(F)(F)F)cc1 | inconclusive: 10 µM [inhibitor, partial curve] |  |
| COc1ccc(NC(=O)COC(=O)[C@@H]2CCCN2C(=O)c2cccs2)cc1 | inconclusive: 0.631 µM [inhibitor, full curve, poor fit] |  |
| Cc1nn(-c2ccccc2)c(Cl)c1C(=O)NNC(=O)c1ccccc1O |  | inactive: -16.3% |
| Cc1cnc(NC(=O)CN2CCN(c3ccccn3)CC2)s1 | inconclusive: 35.5 µM [inhibitor, single point] |  |
| Cc1ccc(-n2nc(C)c3c2OC(N)=C(C#N)C3c2ccoc2)cc1 (stereo unspecified) | inconclusive: 35.5 µM [inhibitor, single point] |  |
| COc1cccc(NS(=O)(=O)c2ccc3c(c2)[C@H]2C=CC[C@H]2[C@@H](c2ccccc2Cl)N3)c1 | active: 11.2 µM |  |
| Cc1ccc(S(=O)(=O)N(CC(=O)Nc2cccnc2)c2ccc(Br)cc2)cc1 | inconclusive: 25.1 µM [inhibitor, single point] |  |
| O=C(COc1ccc(Cl)cc1Cl)NNC(=S)NCc1ccco1 | inconclusive: 20 µM [inhibitor, partial curve] |  |
| O=C(Nc1cccc(S(=O)(=O)N2CCOCC2)c1)c1ccc(N2CCOCC2)c([N+](=O)[O-])c1 |  | inactive: -4.94% |
| CC(C)C[C@H](NC(=O)OC(C)(C)C)c1nnc(SCc2cccc(F)c2)o1 | inconclusive: 12.6 µM [inhibitor, single point] |  |
| COCOCCn1cc(CN2CCS(=O)(=O)N(Cc3ccc(-c4ccc(OC)c(OC)c4)cc3)C(C)C2=O)nn1 (stereo unspecified) |  | inactive: -10% |
| O=C1NC(=O)C(Cc2c[nH]c3ccccc23)N1 (stereo unspecified) | inconclusive: 35.5 µM [inhibitor, single point] |  |
| N#CCCn1cc(/C=C2\NC(=S)N(c3ccccc3)C2=O)c(-c2ccc(-c3ccccc3)cc2)n1 | active: 10 µM |  |
